Source: PubChem BioAssay AID504339 (National Center for Advancing Translational Sciences (NCATS), 2011)
“And” between values parts separate entries of the source, which are not always exact repeats. Equal values may be shown once. The campaign covered roughly 390,000 compounds. About 17,000 (4.4%) were called active. Inconclusive means that the source gave no clear call. Such entries were picked first, then a sample of the others. The call rests on the fitted dose curve; in most records, active means well fitted inhibition curve with a large enough effect; inconclusive means small, poorly fitted or top-dose-only effect; inactive means no such curve, though single readings can be large or run the other way. Potencies of inconclusive entries are doubtful fits and often do not repeat.

biological target: Lysine-specific demethylase 4A (Homo sapiens) (UniProt O75164); assay: qHTS Assay for Inhibitors of JMJD2A-Tudor Domain; conditions: AlphaScreen JMJD2A-Tudor / H3K4me3 peptide binding; activity change, negative = inhibition: at 114 µM (top of the series); further: nearly all actives have a fitted effect of over 50% in size
On the % scale 0 is the no-effect control and ±100 the full control effect; potency means the concentration at half of the fitted maximal effect; tags describe the fitted curve by direction and shape.

Chain of UniProt O75164 (O75164 whole entry, looked up, the tested form may be a part): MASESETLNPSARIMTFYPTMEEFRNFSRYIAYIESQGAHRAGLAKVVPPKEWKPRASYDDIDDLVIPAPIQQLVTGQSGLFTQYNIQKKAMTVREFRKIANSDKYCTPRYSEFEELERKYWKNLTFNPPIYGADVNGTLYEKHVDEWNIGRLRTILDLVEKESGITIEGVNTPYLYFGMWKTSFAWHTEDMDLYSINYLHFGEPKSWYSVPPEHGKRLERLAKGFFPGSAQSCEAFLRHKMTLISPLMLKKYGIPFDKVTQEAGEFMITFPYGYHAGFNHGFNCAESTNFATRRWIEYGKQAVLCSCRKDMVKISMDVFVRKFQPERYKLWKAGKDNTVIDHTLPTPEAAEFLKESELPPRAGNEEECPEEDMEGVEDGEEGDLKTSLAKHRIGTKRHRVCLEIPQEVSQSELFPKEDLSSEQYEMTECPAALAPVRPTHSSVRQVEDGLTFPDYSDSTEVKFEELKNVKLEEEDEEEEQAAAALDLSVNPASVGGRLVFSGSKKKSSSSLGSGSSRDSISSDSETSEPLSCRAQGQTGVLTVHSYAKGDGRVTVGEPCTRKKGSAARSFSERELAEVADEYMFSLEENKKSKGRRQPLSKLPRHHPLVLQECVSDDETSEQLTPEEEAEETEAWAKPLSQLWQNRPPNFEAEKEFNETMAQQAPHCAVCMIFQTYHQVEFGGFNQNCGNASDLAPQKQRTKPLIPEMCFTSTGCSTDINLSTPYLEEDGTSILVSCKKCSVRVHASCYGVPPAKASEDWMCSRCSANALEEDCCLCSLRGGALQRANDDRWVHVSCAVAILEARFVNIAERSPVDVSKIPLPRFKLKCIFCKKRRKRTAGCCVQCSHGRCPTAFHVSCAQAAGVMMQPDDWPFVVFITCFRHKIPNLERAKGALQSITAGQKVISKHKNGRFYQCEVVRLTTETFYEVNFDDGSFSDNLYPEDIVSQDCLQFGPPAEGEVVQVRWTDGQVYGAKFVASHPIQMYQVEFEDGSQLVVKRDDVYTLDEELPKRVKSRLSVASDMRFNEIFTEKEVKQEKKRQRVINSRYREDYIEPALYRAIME

| Compound | activity change, negative = inhibition | Potency |
| --- | --- | --- |
| CCCCN=CC1=C(O)CC(c2ccccc2)CC1=O (stereo not drawn) | inactive: -2.26% |  |
| S=c1sscc1-c1ccccc1 |  | active: 31.6 µM |
| COc1cccc(/C=C2\SC(N3CCC(C)CC3)=NC2=O)c1OC | inactive: -5.69% |  |
| CCOc1ccc(-c2c(C(=O)N/N=C(\C)c3cccnc3)nnn2-c2nonc2N)cc1 |  | inconclusive: 79.4 µM [inhibitor, partial curve, poor fit] |
| COC(=O)c1ccccc1NC(=S)NC(NC(=O)c1ccccc1[N+](=O)[O-])C(Cl)(Cl)Cl (stereo not drawn) | inactive: -19.8% [at 57.1 µM] |  |
| CC(C)C(=O)N1CCN(c2ccccc2NC(=O)c2ccc3c(c2)OCCO3)CC1 |  | inconclusive: 2.82 µM [inhibitor, full curve] |
| CC(=O)c1ccc(NC(=S)NC(=O)/C=C/c2ccco2)cc1 |  | inconclusive: 50.1 µM [inhibitor, full curve, poor fit] |
| O=S(=O)(NCc1ccccc1)c1cccs1 |  | inconclusive: 89.1 µM [inhibitor, partial curve, poor fit] |
| Cc1ccc(NC(=O)CNC(=O)Cn2cnc3sc(C)c(C)c3c2=O)cc1F |  | inconclusive: 44.7 µM [inhibitor, partial curve] |
| COc1cc(O)c(C(CCN2CCN(c3ccccc3)CC2)c2ccc3c(c2)OCO3)c(OC)c1 (stereo not drawn) |  | active: 15.8 µM and active: 17.8 µM |
| Cc1[nH]ncc1N=Cc1ccc([N+](=O)[O-])cc1 | inactive: -33.3% |  |
| Cc1sc2nc[nH]c(=S)c2c1-c1ccccc1 |  | inconclusive: 56.2 µM [inhibitor, partial curve] |
| CCCn1nnnc1NC(=O)c1ccc(C)cc1Cl |  | inconclusive: 89.1 µM [inhibitor, partial curve] |
| O=C(C1CC1)N1CCc2cc(Br)cc(S(=O)(=O)NCc3ccccn3)c21 |  | active: 2.82 µM |
| c1ccc(-n2c(-c3ccco3)nnc2N2CCOCC2)cc1 |  | inconclusive: 39.8 µM [inhibitor, single point] |
| CCN1CCN(c2nc(Nc3cc(OC)ccc3OC)nc(Nc3cc(OC)ccc3OC)n2)CC1 |  | inconclusive: 3.16 µM [inhibitor, full curve, poor fit] |
| O=C(CSc1nnnn1C1CCCCC1)Nc1cccc(NC(=O)c2ccco2)c1 |  | inconclusive: 3.16 µM [inhibitor, single point] |
| Cc1cc(=O)oc2cc(OCC(=O)Nc3nnc(CC(C)C)s3)ccc12 | inactive: -18.6% |  |
| COc1ccccc1CC(=O)Nc1cc(S(=O)(=O)N2CCOCC2)ccc1N1CCOCC1 | inactive: 7.72% |  |
| Cn1nnnc1SCCCNCc1ccc(-c2ccc(Br)cc2)o1 |  | inconclusive: 50.1 µM [inhibitor, partial curve] |
| Cc1cc(C)c(CN2CCN(C(=O)Cn3cnc4c(NCc5ccccc5)ncnc43)CC2)c(C)c1 |  | inconclusive: 79.4 µM [inhibitor, partial curve] |

| Compound | activity change, negative = inhibition | Potency |
| --- | --- | --- |
| Cc1ccccc1CCNC(=O)c1ccc2c(c1)c(C)c(C)n2C |  | inconclusive: 25.1 µM [inhibitor, full curve] |
| COc1ccc(-n2c(=O)[nH]cc(C(=O)Nc3ccc4c(c3)OCO4)c2=O)cc1OC |  | inconclusive: 89.1 µM [inhibitor, partial curve] |
| CCc1ccc(NC(=O)CSc2ccc(-c3sc(-c4ccccc4)nc3C)nn2)cc1 |  | inconclusive: 89.1 µM [inhibitor, single point] |
| CCOc1cc(/C=N/NC(=O)c2cccc([N+](=O)[O-])c2)ccc1OS(=O)(=O)c1ccccc1 |  | inconclusive: 3.55 µM [inhibitor, full curve, poor fit] |
| CC(C)c1nc(=S)c2ccccc2[nH]1 |  | inconclusive: 100 µM [inhibitor, single point] |
| Cc1ccccc1C(=O)Nc1cccc(NC(=O)c2ccc(C(C)(C)C)cc2)c1 | inactive: -16.7% |  |
| COC(=O)C1=C(C)N(CCc2ccc(OC)c(OC)c2)C(=O)/C1=C\c1ccc(O)cc1 |  | inconclusive: 31.6 µM [inhibitor, partial curve] |
| Cc1ccccc1Cn1c(CN2CCc3ccccc3C2)nc2c1c(=O)n(C)c(=O)n2C |  | inconclusive: 50.1 µM [inhibitor, partial curve] |
| Cc1ccc(NC(=O)c2cc(N(C)C)ccc2[P+](=O)O)cc1 |  | inconclusive: 89.1 µM [inhibitor, partial curve] |
| CCOC(=O)[C@H]1[C@H]2COc3cc(OC)ccc3[C@@H]2N2C(=O)CN(CCc3c[nH]c4ccccc34)C(=O)[C@@]12C |  | inconclusive: 70.8 µM [inhibitor, single point] |
| CCc1cc2c(=O)c(Oc3ccccc3F)c(C)oc2c(CN(C)C)c1O |  | inconclusive: 28.2 µM [inhibitor, partial curve, poor fit] |
| COc1ccccc1NC(=O)CSc1nc2c(sc3ccccc32)c(=O)n1CCN(C)C | inactive: -24.1% |  |
| Nc1ncc(-c2cccc(-c3nn4c(=O)cc(N5CCNCC5)nc4s3)c2)cn1 |  | inconclusive: 79.4 µM [inhibitor, partial curve] |
| COc1ccc(CNC(=O)c2n[nH]c3ccccc23)cc1OC | inactive: 2.06% |  |
| O=C(Cn1cc(COc2c(F)c(F)cc(F)c2F)nn1)c1ccc(O)cc1 |  | active: 39.8 µM |
| O=C(CN1CCN(S(=O)(=O)N2CCOCC2)CC1)Nc1cc(Cl)cc(Cl)c1 | inactive: -10.9% |  |
| CCC1=NN2C(=N)/C(=C\c3cccn3-c3cccc(Cl)c3)C(=O)N=C2S1 |  | inconclusive: 56.2 µM [inhibitor, partial curve] |
| CCN(CC)CCNC(=O)c1ccc(NC(=O)c2ccc(Cl)c(S(=O)(=O)N3CCCCCC3)c2)cc1 |  | inconclusive: 56.2 µM [inhibitor, partial curve] |
| O=C(COc1ccccc1)N(Cc1cccnc1)c1nc2c(F)cc(F)cc2s1 |  | inconclusive: 28.2 µM [inhibitor, full curve, poor fit] |
| CC1CCc2c(sc(NC(=O)COC(=O)c3ccc(O)cc3)c2C#N)C1 (stereo not drawn) |  | inconclusive: 89.1 µM [inhibitor, partial curve, poor fit] |
| c1ccc(C2c3[nH]c4ccccc4c3CCN2Cc2cccn2-c2cccnc2)nc1 (stereo not drawn) |  | inconclusive: 35.5 µM [inhibitor, partial curve] |

| Compound | activity change, negative = inhibition | Potency |
| --- | --- | --- |
| CC[C@]12c3[nH]c4ccccc4c3CCN1C(=O)C(CC(=O)NC/C=C(\C)CCC=C(C)C)C[C@@H]2C(=O)N1CCN(C(=O)c2ccco2)CC1 (stereo partly drawn) |  | inconclusive: 31.6 µM [inhibitor, full curve] |
| O=C(Nc1ccc(S(=O)(=O)N2CCCCC2)cc1)c1ccccc1Cl |  | inconclusive: 39.8 µM [inhibitor, single point] |
| O=[N+]([O-])c1nn(-c2ccc(Cl)cc2)n(O)c1=NCc1cccnc1 |  | inconclusive: 39.8 µM [inhibitor, partial curve] |
| Cc1ccc2scc(N3CCCCC3C)c(=O)c2c1 (stereo not drawn) |  | inconclusive: 56.2 µM [inhibitor, partial curve] |
| CC(C)C[C@H]1CN([C@@H](CC(C)C)CN2CCCC2CN2C(=S)NC[C@@H]2Cc2ccc(O)cc2)C(=S)N1CCc1ccccc1 (stereo partly drawn) |  | inconclusive: 10 µM [inhibitor, full curve, poor fit] |
| Cc1cc(C(=O)OCC(N)=O)c(C)n1-c1ccccc1 |  | inconclusive: 22.4 µM [inhibitor, full curve] |
| COc1cc2sc(-c3ccccc3OC)c(-c3ccc(O)cc3)c2cc1OC |  | inconclusive: 50.1 µM [inhibitor, partial curve] |
| Cc1ccc(NC2(c3ccccc3)C(=O)c3ccccc3C2=O)cc1F |  | inconclusive: 39.8 µM [inhibitor, partial curve] |
| O=C(Nc1ccc2c(c1)OCCO2)c1ccc(Cl)c([N+](=O)[O-])c1 |  | inconclusive: 25.1 µM [inhibitor, single point] |
| COc1ccccc1N1CCN(c2nc(N)c(C#N)c(CC#N)c2C#N)CC1 |  | inconclusive: 79.4 µM [inhibitor, single point] |
| COc1ccc(C(=O)/C=C/c2cn(CC(O)CN3CCCCCC3)c3ccccc23)cc1OC (stereo not drawn) |  | inconclusive: 56.2 µM [inhibitor, partial curve] |
| COc1ccc(C(CNc2nc(-c3cccnc3)nc3ccccc23)N(C)C)cc1 (stereo not drawn) |  | inconclusive: 56.2 µM [inhibitor, partial curve] |
| CC1(C)Cc2c(cnn2-c2ccccc2)-c2c1c1ccccc1n2CC(O)CCl (stereo not drawn) |  | inconclusive: 100 µM [inhibitor, partial curve] |
| CCN(CC)c1ccc(/C=N/NC(=O)c2ccc3nc[nH]c3c2)cc1 |  | inconclusive: 79.4 µM [inhibitor, partial curve] |
| COc1ccccc1/C=C1\SC(=S)N(CCC(=O)N2CCN(C)CC2)C1=O |  | inconclusive: 14.1 µM [inhibitor, full curve] |
| COc1cc(OC)c(C(=O)Nc2ccc(N(C)C)cc2)cc1OC |  | active: 79.4 µM |
| Cn1c(=O)c2cc(C(=O)NCCCN3CCN(c4ccc(F)cc4)CC3)sc2c2ccccc21 | inactive: -24.3% |  |
| CCNC(=S)N=Nc1c(O)n(Cc2ccc(Cl)cc2)c2ccccc12 |  | inconclusive: 17.8 µM [inhibitor, full curve] |
| COc1ccc(NC(=O)CSc2nc3ccccc3nc2N2CCOCC2)c(OC)c1 |  | inconclusive: 22.4 µM [inhibitor, full curve, poor fit] |
| Cc1ccc2oc(C(=O)N(C)Cc3ccc(C)o3)c(C)c2c1 |  | inconclusive: 20 µM [inhibitor, full curve] |
| COC(=O)CC1(c2cccc3ccccc23)C(=O)c2ccccc2C1=O |  | inconclusive: 63.1 µM [inhibitor, partial curve, poor fit] |
